In ChEMBL document CHEMBL1201862, “PubChem BioAssay data set” (2004):
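Step 1: Grow cells in 96-well plates. Step 2: Expose to compound for 48 hours at 5 concentrations. Step 3: Interpolate endpoints linearly; if unreached, use highest concentration. GI50 marks 50% less growth.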 Calls of active or inactive are those of the source. Cut-off read from the data, not from the text of the source: active = GI50 up to about 1.1 µM and inactive = higher.

The compounds below were run on NCI-H322M (assay: NCI anticancer screen, dose series, 48 h).
`CCN(CC)CCNc1ccc(CO)c2sc3ccccc3c(=O)c12` [HYCANTHONE] was tested, and the GI50 was inactive: 11.8 µM.
With `CC1CCC2(NC1)OC1CC3[C@@H]4CC=C5C=CCC[C@]5(C)C4CC[C@]3(C)C1C2C` (some centres not stated) the GI50 was inactive: 22.9 µM.
`CCOC(=O)c1sc2[n+](c1C)C(=O)/C(=C/c1ccc([N+](=O)[O-])cc1)S2` was tested, and the GI50 was inactive: 38.8 µM.
`CCCCCC(/C=N/N)C(O)(C(F)(F)F)C(F)(F)F` (configuration not stated) was tested, and the GI50 was inactive: 3.1 µM.
For `CCOC(=O)CO/N=C\C1=CC(=O)C2CC1C2(C)C` (configuration not stated), the GI50 was inactive: > 100 µM.
With `CN(/N=C\c1ccc2ccccc2c1)C1=NCCCN1` the GI50 was inactive: 17.2 µM.
`Cc1ccc(S(=O)(=O)C2CC2(Cl)Cl)cc1` (configuration not stated) was tested, and the GI50 was inactive: > 100 µM.
In the case of `CC(=O)O[C@@H]1O[Si](C(C)(C)C)(C(C)(C)C)[C@H](C)[C@H]1C`, the GI50 is reported as inactive: > 10 µM.
In the case of `O=C(c1ccc(Cl)cc1Cl)C1[C@H]2C(=O)N(c3ccc(Cc4ccc(N5C(=O)[C@@H]6ON(c7ccccc7)C(C(=O)c7ccc(Cl)cc7Cl)[C@@H]6C5=O)cc4)cc3)C(=O)[C@H]2ON1c1ccccc1` (some centres not stated), the GI50 is reported as inactive: > 50 µM.
`Nc1ncnc2c1ncn2CCCNO` was tested, and the GI50 was inactive: > 100 µM.
With `CC(=O)Nc1ccc(NC(=O)c2c(Cl)c(Cl)c(Cl)c(Cl)c2-c2nc3ccccc3[nH]2)cc1` the GI50 was inactive: 39.1 µM.
For `COc1cc(/C=C2\C[C@H]3[C@@H]4CC=C5C[C@@H](O)CC[C@]5(C)[C@H]4CC[C@]3(C)[C@H]2O)cc(OC)c1OC`, the GI50 was inactive: 25.6 µM.
For `Oc1ncnc2c1sc(=S)n2-c1ccccc1`, the GI50 was inactive: > 100 µM.
With `O=C1CC(=O)N(CCc2ccccc2)S(=O)(=O)N1CCc1ccccc1` the GI50 was inactive: 30.7 µM.
`COc1ccccc1/C=C/c1ccnc2ccccc12` was tested, and the GI50 was inactive: 18.4 µM.
`CC[C@](O)(C(=O)O)c1cc2n(c(=O)c1CO)Cc1cc3ccccc3nc1-2` was tested, and the GI50 was active: 0.581 µM.
In the case of `Cc1nc2c(C)c3c([nH]c4ccc(Cl)cc43)c(C)c2c(O)c1C`, the GI50 is reported as inactive: 25.3 µM.
In the case of `COC(=O)[C@H](Cc1ccccc1)NC(=O)/C(=C/C(C)C)NC(=O)[C@H](CCSC)NC=O`, the GI50 is reported as inactive: 57.9 µM.
For `Clc1ccc2c(NCCCCN3OC3c3ccccc3)ccnc2c1` (configuration not stated), the GI50 was inactive: 9.44 µM.
For `CC1=CC[C@@H](C(C)(C)O)C[C@@H]1O`, the GI50 was inactive: > 5000 µM.
`COc1ccc(/C=C/C(=O)c2cccc(C(=O)/C=C/c3ccc(OC)c(OC)c3)n2)cc1OC` was tested, and the GI50 was inactive: > 100 µM.
With `O=c1[nH]c(N/N=C\C(O)C(O)C(O)C(O)CO)nc2ccccc12` (configuration not stated) the GI50 was inactive: > 100 µM.
In the case of `O=C(Cn1c2ccc(Br)cc2c2nc3ccccc3nc21)NCc1ccccc1`, the GI50 is reported as inactive: > 100 µM.
For `COC1=Nc2ccccc2S(=O)(=O)C=C1`, the GI50 was inactive: 18.2 µM.
For `O=C1OCC2=C1C(c1ccc3c(c1)OCO3)c1cc3c(cc1O2)OCO3` (configuration not stated), the GI50 was inactive: 1.5 µM.
In the case of `C=C1CC=CC(C)(C)C1C/C=C(\C)C(O)CBr` (configuration not stated), the GI50 is reported as inactive: > 100 µM.
In the case of `C=CCn1c(-c2ccc([N+](=O)[O-])cc2)csc1=N`, the GI50 is reported as inactive: > 100 µM.
`C(=NCCN1CCOCC1)=NC1CCCCC1` was tested, and the GI50 was inactive: > 100 µM.
`COc1ccccc1[C@@H]1CCC2CC[C@@H](c3ccccc3OC)[N+]21Cc1ccccc1` (some centres not stated) was tested, and the GI50 was inactive: 2.36 µM.
For `COC1=CC(=O)c2c(cc(COP(=O)(N(C)CCBr)N(C)CCBr)n2C)C1=O`, the GI50 was inactive: 2.3 µM.
With `CN(C)CCCCCNc1c2ccccc2nc2cccc([N+](=O)[O-])c12` the GI50 was active: 0.0031 µM.
In the case of `N#Cc1cc(NC(=O)c2ccccc2)c(=O)n2c1[nH]c1ccccc12`, the GI50 is reported as inactive: 30.9 µM.
In the case of `Cc1ccc(S(=O)(=O)NC(=O)NNc2ccc(F)cc2)cc1`, the GI50 is reported as inactive: > 100 µM.
For `COc1ccc2nc3c([N+](=O)[O-])ccc(NCCN(C)C)c3c(N)c2c1`, the GI50 was inactive: 1.38 µM.
In the case of `O=C(NN1CCCCC1)c1cc2cc(CCl)ccc2oc1=O`, the GI50 is reported as inactive: 15.9 µM.
With `CN1CCC(CNC(=O)CCCCCCCCC(=O)NCC2(c3ccccc3)CCN(C)CC2)(c2ccccc2)CC1` the GI50 was inactive: > 100 µM.
With `CCCCCC(CN1CCOCC1)C(=O)/C=C/c1ccccc1` (configuration not stated) the GI50 was inactive: 4.21 µM.
